From a collection of fitness landscapes (doi:10.1126/science.1257360)
The list shows a part of the results.

B1: PhoQ; a variant is named by its letters at X, in order, P23837 (parent)
chain: MKKLLRLFFPLSLRVRFLLATAAVVLVLSLAYGMVALIGYSVSFDKTTFRLLRGESNLFYTLAKWENNKLHVELPENIDKQSPTMTLIYDENGQLLWAQRDVPWLMKMIQPDWLKSNGFHEIEADVNDTSLLLSGDHSIQQQLQEVREDDDDAEMTHSVAVNVYPATSRMPKLTIVVVDTIPVELKSSYMVWSWFIYVLSANLLLVIPLLWVAAWWSLRPIEALAKEVRELEEHNRELLNPATTRELTSLVRNLNRLLKSERERYDKYRTTLTDLTHSLKTPLXXLQXXLRSLRSEKMSVSDAEPVMLEQISRISQQIGYYLHRASMRGGTLLSRELHPVAPLLDNLTSALNKVYQRKGVNISLDISPEISFVGEQNDFVEVMGNVLDNACKYCLEFVEISARQTDEHLYIVVEDDGPGIPLSKREVIFDRGQRVDTLRPGQGVGLAVAREITEQYEGKIVAGESMLGGARMEVIFGRQHSAPKDE

Variants of: B1
Test: enrichment ratio after two sorts for PhoP signalling (ratio (wild type AVST 3.29)); higher = more functional
Conditions: with PhoP (E. coli)
In the case of MLPK, the enrichment ratio is reported as ≤ 0.25.
QGCH was tested, and the enrichment ratio was ≤ 0.25.
In the case of KLDF, the enrichment ratio is reported as ≤ 0.25.
For AHSI, the enrichment ratio was ≤ 0.25.
With FLRS the enrichment ratio was ≤ 0.25.
In the case of WMTS, the enrichment ratio is reported as ≤ 0.25.
SRTL gave an enrichment ratio of 0.897.
In the case of QERC, the enrichment ratio is reported as ≤ 0.25.
In the case of IDFW, the enrichment ratio is reported as ≤ 0.25.
For FVYT, the enrichment ratio was ≤ 0.25.
With FHTD the enrichment ratio was ≤ 0.25.
For MSDS, the enrichment ratio was ≤ 0.25.
For PHHI, the enrichment ratio was ≤ 0.25.
For NMNT, the enrichment ratio was ≤ 0.25.
YAML was tested, and the enrichment ratio was 8.51.
In the case of VKWD, the enrichment ratio is reported as ≤ 0.25.
LWIC was tested, and the enrichment ratio was ≤ 0.25.
For PDKE, the enrichment ratio was ≤ 0.25.
In the case of GTKH, the enrichment ratio is reported as ≤ 0.25.
TLTV was tested, and the enrichment ratio was 8.62.
SGRC was tested, and the enrichment ratio was ≤ 0.25.
For TNHI, the enrichment ratio was ≤ 0.25.
VSIS was tested, and the enrichment ratio was ≤ 0.25.
With RICK the enrichment ratio was ≤ 0.25.
With QYHL the enrichment ratio was ≤ 0.25.
With FRFQ the enrichment ratio was ≤ 0.25.
In the case of PTYE, the enrichment ratio is reported as ≤ 0.25.
With YKVR the enrichment ratio was ≤ 0.25.
For SCKN, the enrichment ratio was ≤ 0.25.
Variant WELI has an enrichment ratio of 2.12.
For DVIM, the enrichment ratio was ≤ 0.25.
YYNI was tested, and the enrichment ratio was ≤ 0.25.
In the case of GDPC, the enrichment ratio is reported as ≤ 0.25.
With MRKV the enrichment ratio was ≤ 0.25.
With SDVP the enrichment ratio was ≤ 0.25.
KEGP was tested, and the enrichment ratio was ≤ 0.25.
In the case of MRNA, the enrichment ratio is reported as ≤ 0.25.
In the case of LVAA, the enrichment ratio is reported as ≤ 0.25.
GHSS was tested, and the enrichment ratio was ≤ 0.25.
In the case of MMII, the enrichment ratio is reported as ≤ 0.25.
For ADTP, the enrichment ratio was ≤ 0.25.
With ICMK the enrichment ratio was ≤ 0.25.
With MIVC the enrichment ratio was ≤ 0.25.
DWNM was tested, and the enrichment ratio was ≤ 0.25.
In the case of WDLR, the enrichment ratio is reported as ≤ 0.25.
With ENKF the enrichment ratio was ≤ 0.25.
HETW was tested, and the enrichment ratio was ≤ 0.25.
With ICWT the enrichment ratio was ≤ 0.25.
For IDCH, the enrichment ratio was ≤ 0.25.
DSAE was tested, and the enrichment ratio was ≤ 0.25.
AQMG was tested, and the enrichment ratio was 8.69.
With TRAD the enrichment ratio was ≤ 0.25.
In the case of FHMD, the enrichment ratio is reported as ≤ 0.25.
With KGGG the enrichment ratio was ≤ 0.25.
DTAA was tested, and the enrichment ratio was ≤ 0.25.
In the case of GFRL, the enrichment ratio is reported as ≤ 0.25.
With IYKG the enrichment ratio was ≤ 0.25.
In the case of KSLM, the enrichment ratio is reported as ≤ 0.25.
With WWCN the enrichment ratio was ≤ 0.25.
For WFQF, the enrichment ratio was ≤ 0.25.
For TLLN, the enrichment ratio was 0.361.
TIFN gave an enrichment ratio of 0.384.
In the case of MIFY, the enrichment ratio is reported as 2.
In the case of VPKI, the enrichment ratio is reported as ≤ 0.25.
With DQTE the enrichment ratio was ≤ 0.25.
With TEPN the enrichment ratio was ≤ 0.25.
With EVLY the enrichment ratio was ≤ 0.25.
In the case of KART, the enrichment ratio is reported as ≤ 0.25.
With FVAC the enrichment ratio was ≤ 0.25.
With FVIR the enrichment ratio was ≤ 0.25.
For DCCV, the enrichment ratio was ≤ 0.25.
In the case of VNTK, the enrichment ratio is reported as ≤ 0.25.
In the case of FMNS, the enrichment ratio is reported as ≤ 0.25.
TQYR was tested, and the enrichment ratio was ≤ 0.25.
AATM gave an enrichment ratio of 0.767.
IYPE was tested, and the enrichment ratio was ≤ 0.25.
In the case of LPRD, the enrichment ratio is reported as 0.439.
With MTNN the enrichment ratio was ≤ 0.25.
In the case of GYEN, the enrichment ratio is reported as ≤ 0.25.
For RKIS, the enrichment ratio was ≤ 0.25.
ITKI was tested, and the enrichment ratio was ≤ 0.25.
With IHSN the enrichment ratio was ≤ 0.25.
In the case of IPVV, the enrichment ratio is reported as ≤ 0.25.
For KVIG, the enrichment ratio was ≤ 0.25.
LYER was tested, and the enrichment ratio was ≤ 0.25.
In the case of WFEK, the enrichment ratio is reported as ≤ 0.25.
GSPC was tested, and the enrichment ratio was ≤ 0.25.
In the case of VYGN, the enrichment ratio is reported as ≤ 0.25.
For MQIM, the enrichment ratio was ≤ 0.25.
With SGFG the enrichment ratio was ≤ 0.25.
In the case of HYRG, the enrichment ratio is reported as ≤ 0.25.
QQSV was tested, and the enrichment ratio was 0.38.
For SRTA, the enrichment ratio was ≤ 0.25.
In the case of PVHH, the enrichment ratio is reported as ≤ 0.25.
AQPV was tested, and the enrichment ratio was ≤ 0.25.
In the case of PMFG, the enrichment ratio is reported as ≤ 0.25.
DSAG was tested, and the enrichment ratio was ≤ 0.25.
NHEV was tested, and the enrichment ratio was ≤ 0.25.
With AKIQ the enrichment ratio was ≤ 0.25.
For RSKH, the enrichment ratio was ≤ 0.25.
Variant LNFS has an enrichment ratio of 0.252.
In the case of YNIA, the enrichment ratio is reported as ≤ 0.25.
TFFL was tested, and the enrichment ratio was ≤ 0.25.
In the case of AKLS, the enrichment ratio is reported as 13.1.
NRTR was tested, and the enrichment ratio was ≤ 0.25.
With RCHI the enrichment ratio was ≤ 0.25.
For TFDR, the enrichment ratio was ≤ 0.25.
In the case of MDFQ, the enrichment ratio is reported as ≤ 0.25.
DDLW was tested, and the enrichment ratio was ≤ 0.25.
In the case of QKTY, the enrichment ratio is reported as ≤ 0.25.
For FGSC, the enrichment ratio was ≤ 0.25.
For NRYK, the enrichment ratio was ≤ 0.25.
In the case of DVIC, the enrichment ratio is reported as ≤ 0.25.
With PWYN the enrichment ratio was ≤ 0.25.
With WMYR the enrichment ratio was ≤ 0.25.
In the case of YIVG, the enrichment ratio is reported as ≤ 0.25.
With WKEI the enrichment ratio was ≤ 0.25.
With FFLQ the enrichment ratio was ≤ 0.25.
GNMG was tested, and the enrichment ratio was ≤ 0.25.
With MKIL the enrichment ratio was ≤ 0.25.
In the case of LGLP, the enrichment ratio is reported as ≤ 0.25.
For CQFS, the enrichment ratio was ≤ 0.25.
TLWG was tested, and the enrichment ratio was ≤ 0.25.
EQRF was tested, and the enrichment ratio was ≤ 0.25.
EKWK was tested, and the enrichment ratio was ≤ 0.25.
With TEMW the enrichment ratio was ≤ 0.25.
For DMVH, the enrichment ratio was ≤ 0.25.
Work on MNFG yielded an enrichment ratio of 3.77.
EPSH was tested, and the enrichment ratio was ≤ 0.25.
With SCKR the enrichment ratio was ≤ 0.25.
In the case of RSLP, the enrichment ratio is reported as ≤ 0.25.
With VVAK the enrichment ratio was ≤ 0.25.
RAGF was tested, and the enrichment ratio was ≤ 0.25.
With GKRE the enrichment ratio was ≤ 0.25.
In the case of GYNV, the enrichment ratio is reported as ≤ 0.25.
In the case of KQMS, the enrichment ratio is reported as ≤ 0.25.
With WELH the enrichment ratio was ≤ 0.25.
In the case of NCKK, the enrichment ratio is reported as ≤ 0.25.
For KGGA, the enrichment ratio was ≤ 0.25.
WMYI was tested, and the enrichment ratio was ≤ 0.25.
For QWPK, the enrichment ratio was ≤ 0.25.
With TPII the enrichment ratio was ≤ 0.25.
In the case of HNMP, the enrichment ratio is reported as ≤ 0.25.
For WYTN, the enrichment ratio was ≤ 0.25.
For VPVC, the enrichment ratio was ≤ 0.25.
In the case of FKKN, the enrichment ratio is reported as ≤ 0.25.
For TNHH, the enrichment ratio was ≤ 0.25.
QKCS was tested, and the enrichment ratio was ≤ 0.25.
QYLS was tested, and the enrichment ratio was ≤ 0.25.
In the case of HYSL, the enrichment ratio is reported as ≤ 0.25.
For NKHF, the enrichment ratio was ≤ 0.25.
For EKYN, the enrichment ratio was ≤ 0.25.
LGQI was tested, and the enrichment ratio was ≤ 0.25.
For WVLF, the enrichment ratio was ≤ 0.25.
In the case of FDER, the enrichment ratio is reported as ≤ 0.25.
MSYP was tested, and the enrichment ratio was ≤ 0.25.
For FIAI, the enrichment ratio was ≤ 0.25.
In the case of DKQL, the enrichment ratio is reported as ≤ 0.25.
For YFWH, the enrichment ratio was ≤ 0.25.
For RVYL, the enrichment ratio was ≤ 0.25.
FKLQ was tested, and the enrichment ratio was ≤ 0.25.
QQSI gave an enrichment ratio of 8.77.
For MINK, the enrichment ratio was ≤ 0.25.
For GTFR, the enrichment ratio was ≤ 0.25.
SFQR was tested, and the enrichment ratio was ≤ 0.25.
With CYFL the enrichment ratio was ≤ 0.25.
With RLKY the enrichment ratio was ≤ 0.25.
With YIIH the enrichment ratio was ≤ 0.25.
In the case of HNFY, the enrichment ratio is reported as ≤ 0.25.
HKEV was tested, and the enrichment ratio was ≤ 0.25.
In the case of WFQW, the enrichment ratio is reported as ≤ 0.25.
For KGLD, the enrichment ratio was ≤ 0.25.
MDYL showed an enrichment ratio of 1.6.
PYER was tested, and the enrichment ratio was ≤ 0.25.
HEMS gave an enrichment ratio of 2.49.
TMEP was tested, and the enrichment ratio was ≤ 0.25.
With KNWS the enrichment ratio was ≤ 0.25.
With PLMR the enrichment ratio was ≤ 0.25.
In the case of MYTK, the enrichment ratio is reported as ≤ 0.25.
KMMV was tested, and the enrichment ratio was ≤ 0.25.
In the case of VVHG, the enrichment ratio is reported as ≤ 0.25.
In the case of FVDF, the enrichment ratio is reported as ≤ 0.25.
For FKFD, the enrichment ratio was ≤ 0.25.
For QNGD, the enrichment ratio was ≤ 0.25.
For QLAI, the enrichment ratio was ≤ 0.25.
For WPML, the enrichment ratio was ≤ 0.25.
In the case of HMCW, the enrichment ratio is reported as ≤ 0.25.
For QYYQ, the enrichment ratio was ≤ 0.25.
In the case of IIFN, the enrichment ratio is reported as ≤ 0.25.
In the case of GFCR, the enrichment ratio is reported as ≤ 0.25.
APYE was tested, and the enrichment ratio was ≤ 0.25.
IMEA was tested, and the enrichment ratio was ≤ 0.25.
With LSMM the enrichment ratio was 12.4.
For EREF, the enrichment ratio was ≤ 0.25.
With GVTI the enrichment ratio was 4.7.
